The shares of active, inactive and inconclusive entries below differ from those in the screen. Active and inactive are the calls of the source.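 Rule for the calls: active = viability at or below 30% in both replicate assays; inconclusive = viability at or below 30% in just one of the two assays; inactive = the rest.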
Assay: HUVEC growth inhibition – cell-based, human, primary screen (AID 575);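 note: 100% = median of untreated cell wells with 0.1% DMSO on each plate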
Conditions: HUVEC proliferation, CellTiter-Glo luminescence, 72 h; at 10 µM; active compounds read low
In short: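 Assay system: primary human umbilical vein endothelial cells / Buffer or medium: endothelial basal medium with 2% FBS plus growth supplements / Compound dosing: one dose, 10 µM final, 0.1% DMSO / Timing: 72 h treatment at 37 °C / Signal: CTG luminescence / Benchmarks: 32 DMSO-only cell-control wells (high), 32 MePR drug-control wells (low) per plate / Plate: collagen-coated 384-well format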

| SMILES | viability |
| --- | --- |
| COc1ccccc1NC(=O)c1oc2ccccc2c1NC(=O)c1cc(OC)c(OC)c(OC)c1 | inconclusive: 22.5% |
| CCOc1ccccc1CN(Cc1ccco1)S(=O)(=O)c1ccc(-n2cnnn2)c(OC)c1 | inactive: 54.7% |
| Cc1ccc(-n2c3c(cc(C(=O)NC4CCSC4=O)c2=O)C(=O)CC(C)(C)C3)cc1 (centres undefined) | inactive: 85.4% |
| CCCCC[C@H](O)/C=C/[C@H]1C=CC(=O)[C@@H]1C/C=C\CCCC(=O)O | inconclusive: 37.1% |
| CCOC(=O)c1cc2sc(C)cc2n1CC(=O)NCc1ccc(F)cc1 | inconclusive: 34.7% |
| COc1ccc(-c2nsc(SCC(=O)Nc3cc(C)on3)n2)cc1 | inactive: 79.4% |
| CCOC(=O)c1c(NC(=O)c2cccs2)sc2c1CCN(C(=O)OCC)C2 | active: 6.86% |
| CN1CCN(C2=Nc3cc(Cl)ccc3Nc3ccccc32)CC1 | inconclusive: 27.9% |
| CCCCn1c(SCc2ccc(Cl)cc2)nc2c1c(=O)[nH]c(=O)n2C | inconclusive: 46.7% |
| Fc1ccc(C(c2ccc(F)cc2)N2CCN(C/C=C/c3ccccc3)CC2)cc1 | inconclusive: 50.8% |
| O=c1c2ccccc2nc(SCc2nnc(-c3ccccc3Br)o2)n1-c1ccccc1 | inconclusive: 62.3% |
| Nc1sccc1C(=O)c1ccccc1 | inactive: 82.6% |
| COc1ccccc1-c1nnc(NC(=O)c2ccc(S(=O)(=O)N(C)Cc3ccccc3)cc2)o1 | active: 23.9% |
| OCCNc1ncnc2c1c(-c1ccccc1)c(-c1ccccc1)n2Cc1ccco1 | inconclusive: 45.7% |

— PubChem BioAssay
